These results are taken from ChEMBL document CHEMBL4888484, “Replenishing the malaria drug discovery pipeline: Screening and hit evaluation of the MMV Hit Generation Library 1 (HGL1) against asexual blood stage Plasmodium falciparum ,using a nano luciferase reporter read-out” (2022).

The structures appear in SMILES notation. Among all 150,000 compounds or so, about 540 (0.36%) showed an effect of 50% or more. The list shows a part of the results.

The experiment deals with Plasmodium falciparum. Put plainly: Primary screen in NF54 nanoGlo assay, in single point, at 2uM, 72h; a lower Z score goes with more inhibition. Type of experiment: functional, Erythrocyte. The following applies: timepoint 72 hour.
The % Inhibition is the change of the read-out against control, counted positive when it falls. On to `Cc1ccc(CN2C[C@@H]3CC[C@H]2CN(c2cnccn2)C3)s1`, for which the “% Inhibition” value is -17% and the Z score is 2.71.
As to `CCN(CC)c1nc2cc(C(=O)NCc3ccc(C)cc3)ccc2c(=O)n1Cc1ccccc1`, the “% Inhibition” value is recorded as 5% and the Z score is given as -0.78.
The matching figures for `O=C(NC1(c2ccccc2)COC1)c1noc2c1COCC2`: -14% and 1.85.
For `O=C(OC[C@@H](c1ccccc1)N1CCS(=O)(=O)CC1)c1ccc(Cl)c(Cl)c1`, the “% Inhibition” value was -5% and the Z score is 0.72.
Turning to `Cc1cc(C)cc(-n2nc(C(=O)NCC3CC3)c(=O)n(Cc3ccccc3F)c2=O)c1`, the “% Inhibition” value is recorded as -4% and the Z score was determined as 0.51.
Take `Cc1noc(-c2ccccc2Cl)c1C(=O)NC[C@H]1CCCO1`: the “% Inhibition” value is 0% and the Z score came to 0.07.
The matching figures for `Cc1nc(N)nc(NCCC2(O)CCCC2)c1Cl`: -10% and 1.09.
The matching figures for `Cn1c(C(=O)NCCCO)cc2occc21`: -6% and 0.66.
The matching figures for `COC(=O)[C@@]1(c2ccccc2)N[C@@H](c2cc(C)ccc2O)[C@H]2C(=O)N(C)C(=O)[C@H]21`: -3% and 0.62.
In the case of `CC1CC(C(=O)NC2CCn3cncc32)CC(C)(C)C1` (configuration not stated), the “% Inhibition” value is listed as -13% and the Z score is 1.75.
The matching figures for `C[C@H]1C(=O)N(c2cccc(F)c2)CCN1C(=O)C1CCCC1`: 29% and -3.84.
The matching figures for `CCc1ccccc1NC(=O)Cn1cnc(-c2noc(-c3ccncc3)n2)c1`: -14% and 1.8.
The matching figures for `O=C1N[C@H]2C[C@@H](C(=O)NC[C@H]3O[C@H](CCOc4ccccc41)CC[C@@H]3O)N(Cc1ccncc1)C2`: 24% and -2.72.
As for `Cc1nnnn1CCC(=O)NCc1ccc2nonc2c1`, the “% Inhibition” value is reported as -13% and the Z score was 1.17.
The matching figures for `Cc1cc2oc(C(=O)Nc3nc(-c4ccc(S(=O)(=O)N5CCCC5)cc4)cs3)c(C)c2cc1C`: -12% and 1.5.
The matching figures for `CC(C)(C)c1cc(CN2CC[C@@](O)(CN3CCCCC3)C2)n[nH]1`: 8% and -0.74.
The matching figures for `CCN1CCN(C2CN(C(=O)COCc3ccc(OC)cc3)C2)CC1`: -4% and 0.74.
Regarding `O=C(NC[C@H]1COCCO1)c1ccc(CN2CCC(O)(c3cccc(C(F)(F)F)c3)CC2)[nH]c1=O`, the “% Inhibition” value came out at 5% and the Z score is given as -0.71.
The matching figures for `Cc1cc(Br)ccc1OCCOCCNCCN`: -5% and 0.7.
Take `CCCCOc1ccc(-c2cc3c(N4CCN(C)CC4)nccn3n2)cc1`: the “% Inhibition” value was -2% and the Z score was determined as 0.31.
In the case of `c1coc(-c2noc([C@H]3CCCc4[nH]ncc43)n2)c1`, the “% Inhibition” value came to 1% and the Z score was -0.12.
The matching figures for `Cc1c(-c2nc3c([nH]2)CCCNC3=O)oc2ccccc12`: 1% and -0.16.
In the case of `O=C(c1cccc(C(F)(F)F)c1)N1CCO[C@]2(CNCCOC2)C1`, the “% Inhibition” value was determined as 12% and the Z score is listed as -1.63.
The matching figures for `CCCc1cnc(C)nc1N1C[C@@H]2NC(=O)CN(CCOC)C(=O)c3cncc(c3)Oc3cccc(c3)CO[C@H]2C1`: -14% and 1.77.
The matching figures for `C/C=C(\C)CN1C[C@H](NC(=O)c2ccnn2C)[C@@H](C2CC2)C1`: -6% and 1.07.
The matching figures for `NC(=O)N1CCC[C@H](Nc2ccc(C(F)(F)F)cn2)C1`: 9% and -1.62.
`COc1ccc(S(=O)(=O)Oc2cc(CN(C(=O)C3CCC3)C(C)C)ccc2OC)cc1`: the “% Inhibition” value is on record as -10% and the Z score was determined as 1.21.
The matching figures for `CC1CC(N(C)C(=O)C(N)Cc2ccccc2)CCN1Cc1ccccc1` (configuration not stated): -7% and 0.94.
For `O=S(=O)(Cc1cc(F)cc(F)c1)N1CC(C(F)F)C1`, the “% Inhibition” value amounted to 1% and the Z score is given as -0.17.
The matching figures for `O=C(N1CCO[C@@H](CF)C1)C1(O)CCC1`: -17% and 1.98.
For `O=C(NCC[C@]1(O)CCCOC1)c1ncccc1F`, the “% Inhibition” value is reported as 14% and the Z score is -1.58.
The matching figures for `CC1(C)CCc2sc(CNC(=O)Cn3cn[nH]c3=O)cc2C1`: -5% and 0.47.
Take `CCN(CC)CCCOc1cc(C)cc(C)c1`: the “% Inhibition” value is -12% and the Z score is 2.21.
Turning to `O=C(O)Cn1ccc([C@H]2CCCN(Cc3cccc4cc[nH]c34)C2)n1`, the “% Inhibition” value is listed as -1% and the Z score amounted to 0.18.
The matching figures for `C=CCNC(=O)N1CCCC[C@H](N2CCN(C)CC2)C1`: -8% and 1.08.
The matching figures for `CN(CCNC(=O)N1C2CCC1CC(=O)C2)Cc1ccc(F)cc1`: 2% and -0.2.
The matching figures for `Cn1cc(CNC(=O)c2cc(F)c[nH]2)cn1`: -3% and 0.57.
On to `Cc1cc(C(=O)NCCc2cccc(-c3ccccc3)c2)n(C2CCOCC2)n1`, for which the “% Inhibition” value stood at 4% and the Z score is recorded as -0.57.
Regarding `Cc1cn(-c2c(F)cccc2F)nc1C(=O)NC1CC2CC2C1` (configuration not stated), the “% Inhibition” value is listed as -3% and the Z score turned out to be 0.63.
The matching figures for `CCCCOc1ccc(C(=O)N2CCn3cccc3[C@H]2c2cccc(OC)c2)cc1`: -1% and 0.17.
With `CCC(=O)Nc1ccc(N2CCN(C(=O)c3cccc(F)c3)CC2)c(C(=O)N(C)Cc2ccccc2)c1`, the “% Inhibition” value is -15% and the Z score is reported as 1.61.
